This note sets out measurements from PMC5267525, “Sec3 promotes the initial binary t-SNARE complex assembly and membrane fusion” (Nature Communications, 2017).

Sequences of proteins named here, by UniProt entry; tags and fusion partners are left off. Residues count along the entry.
UniProt P32854, residues 1-265: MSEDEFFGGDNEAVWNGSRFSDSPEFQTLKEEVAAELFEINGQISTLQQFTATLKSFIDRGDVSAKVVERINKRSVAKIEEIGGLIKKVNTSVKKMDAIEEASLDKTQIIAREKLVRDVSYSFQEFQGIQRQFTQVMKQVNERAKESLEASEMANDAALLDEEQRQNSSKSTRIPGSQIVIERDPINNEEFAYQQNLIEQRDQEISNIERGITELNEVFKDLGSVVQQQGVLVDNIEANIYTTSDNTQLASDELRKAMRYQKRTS
UniProt P19658, residues 358-623: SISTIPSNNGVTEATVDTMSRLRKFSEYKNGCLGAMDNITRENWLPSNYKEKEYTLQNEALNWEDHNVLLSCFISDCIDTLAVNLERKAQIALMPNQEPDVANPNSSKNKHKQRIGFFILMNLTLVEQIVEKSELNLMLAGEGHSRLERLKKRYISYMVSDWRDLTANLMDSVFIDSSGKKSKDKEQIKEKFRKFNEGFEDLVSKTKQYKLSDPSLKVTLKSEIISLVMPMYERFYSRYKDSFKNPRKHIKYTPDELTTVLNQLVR
UniProt P40357, residues 414-651: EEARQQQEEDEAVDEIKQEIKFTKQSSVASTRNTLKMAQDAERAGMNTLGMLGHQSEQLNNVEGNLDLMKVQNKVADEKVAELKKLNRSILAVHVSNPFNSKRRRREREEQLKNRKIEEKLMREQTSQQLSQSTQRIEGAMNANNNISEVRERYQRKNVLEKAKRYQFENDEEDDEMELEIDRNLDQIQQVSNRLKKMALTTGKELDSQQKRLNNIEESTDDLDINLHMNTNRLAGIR

Results are given in words; binding and its absence hold for the method and conditions named. For some of these results: In cells and extracts the contact can be indirect. Some entries that bind do so weakly or less than the wild type.

Experiment [1] addresses GST-tagged cytosolic domain of Sso2 (a.a. 1–270) (yeast) (UniProt P39926). As to the kind of experiment: pull-down; 20 microlitres of rabbit reticulocyte lysate with [35S]-labelled in vitro translated Sec3, 2 μM GST-tagged cytosolic domains of Sso2 or Pep12; SDS-PAGE and autoradiography; only the target purified.
The target of experiment [2] is GST-tagged cytosolic domain of Pep12 (a.a. 1–265) (yeast) (UniProt P32854). The experiment is described as above.
Experiment [3] addresses T1, GST-Sec3N (Sec3 N-terminus, a.a. 1–320) (yeast, UniProt P33332 1-320).
T1 construct: Sec3, yeast exocyst subunit, N-terminus a.a; 1-320; also called pG1860; source: E. coli BL21(DE3), purified (Glutathione Sepharose 4B)
T1 sequence (looked up): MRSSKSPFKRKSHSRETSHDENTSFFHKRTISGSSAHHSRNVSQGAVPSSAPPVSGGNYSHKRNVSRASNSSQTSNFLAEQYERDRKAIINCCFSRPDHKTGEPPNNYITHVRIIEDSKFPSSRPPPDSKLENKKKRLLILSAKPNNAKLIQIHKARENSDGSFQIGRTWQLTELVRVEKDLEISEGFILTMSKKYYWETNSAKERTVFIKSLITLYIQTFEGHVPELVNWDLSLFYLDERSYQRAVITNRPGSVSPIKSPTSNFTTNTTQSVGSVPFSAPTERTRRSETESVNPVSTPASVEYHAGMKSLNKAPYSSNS
Description: pull-down; GST-Sec3N on glutathione Sepharose with His6-Sso2 or His6-Sec9C, or with both in three orders of addition (simultaneous; Sec3N and Sso2 pre-incubated 30 min; Sso2 and Sec9C pre-incubated 2 h); 5 μg His6-Sec9C; Coomassie blue; both purified.

Experiment [4] addresses Sso2 reconstituted in liposomes (yeast) (UniProt P39926). As to the kind of experiment: co-sedimentation; liposomes containing Sso2 incubated with Sec9C in the presence or absence of Sec3N at 25 °C for 30 min; liposomes collected by sedimentation; SDS-PAGE, Coomassie blue; Sso2-free liposomes as control; both purified.
The target in experiment [5] is myc-tagged Sec3 expressed under the endogenous SEC3 promoter (yeast) (UniProt P33332). Description: co-IP; yeast cell lysates of a strain with Sec3-myc, anti-myc antibodies; Sso2 detected by the anti-Sso2 antibody; untagged strain as control.
Experiment [6] has as its target GST-tagged Exo70 fragment (a.a. 358–623) (yeast) (UniProt P19658). Description: pull-down; GST fusion proteins (12 μg) coupled to glutathione Sepharose 4B; His6-Sso2 2 μM added, 25 °C for 2 h; three washes in PBS; SDS-PAGE, Coomassie blue; both purified.

As for “Full-length Sec3, in vitro translated (from UniProt P33332 1-1336)”, the binding result is given as “binds” in experiment [1] and “no binding (tested: 2 μM GST-Pep12)” in experiment [2].

Take “His6-Sec9C (a.a. 414–651) (from UniProt P40357 414-651) (domain or fragment)”: in experiment [3], the binding result is given as “no binding (tested: 5 μg of His6-tagged Sec9C)”.

For “Sec9C used in liposome assays (from UniProt P40357 414-651) (domain or fragment)”, the binding entry in experiment [4] is “binds”.

For the molecule “Sso2 (endogenous, yeast lysate) (from UniProt P39926 1-295)”, the binding entry in experiment [5] is listed as “binds”.

With “Sso2–Sec9C binary t-SNARE complex (His6-Sso2 and His6-Sec9C pre-incubated) (from UniProt P39926 1-270; P40357 414-651)”, the binding entry in experiment [3] is on record as “no binding”.

B1: His6-Sso2 (cytosolic domain, a.a. 1–270) (domain or fragment, yeast, UniProt P39926 1-270, looked up)
chain: MSNANPYENNNPYAENYEMQEDLNNAPTGHSDGSDDFVAFMNKINSINANLSRYENIINQIDAQHKDLLTQVSEEQEMELRRSLDDYISQATDLQYQLKADIKDAQRDGLHDSNKQAQAENCRQKFLKLIQDYRIIDSNYKEESKEQAKRQYTIIQPEATDEEVEAAINDVNGQQIFSQALLNANRRGEAKTALAEVQARHQELLKLEKTMAELTQLFNDMEELVIEQQENVDVIDKNVEDAQQDVEQGVGHTNKAVKSARKARKNKIRC
notes: Sso2, yeast t-SNARE, cytosolic domain a.a; 1-270; also called pG707
Take B1: the binding entry in experiment [6] is given as “no binding (tested: 2 μM His6-Sso2)”.
